# Data published in PubChem BioAssay AID485294 (National Center for Advancing Translational Sciences (NCATS), 2010).
# Out of some 370,000 compounds screened, about 150 (0.041%) were called active. The inconclusive results got no clear call from the source; some entries with a clear call stand among them for comparison. Calls come from the whole dose curve; as a rule, active = well fitted inhibition curve with a large enough effect; inconclusive = small, poorly fitted or top-dose-only effect; inactive = flat fitted curve, though single readings scatter. No potency is given beside an inconclusive call; the fits are too rough.
# Target: Beta-lactamase (Escherichia coli (strain K12)) (UniProt P00811)
# Chain of UniProt P00811 (P00811 whole entry, looked up): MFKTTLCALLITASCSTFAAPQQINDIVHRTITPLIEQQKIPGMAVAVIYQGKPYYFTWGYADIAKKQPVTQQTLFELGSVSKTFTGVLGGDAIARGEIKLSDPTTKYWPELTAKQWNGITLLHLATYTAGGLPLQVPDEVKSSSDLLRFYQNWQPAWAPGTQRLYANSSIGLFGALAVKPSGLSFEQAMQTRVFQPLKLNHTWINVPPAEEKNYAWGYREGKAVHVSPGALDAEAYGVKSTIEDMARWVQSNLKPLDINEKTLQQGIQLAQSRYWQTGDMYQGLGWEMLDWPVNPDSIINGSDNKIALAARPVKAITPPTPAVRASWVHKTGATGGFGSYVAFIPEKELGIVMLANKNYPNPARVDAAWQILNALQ
# Test: qHTS Inhibitors of AmpC Beta-Lactamase (assay with detergent); note: nearly all actives have a fitted effect of over 25% in size;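 for activity change, negative = inhibition: 0% = no-compound wells and -100% = no-enzyme wells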
# Details: AmpC hydrolysis of nitrocefin, absorbance 480 nm, 0.01% Triton; activity change, negative = inhibition: at 114 µM (top of the series)
# Method in brief: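 AmpC (5.3 nM in the dispensed reagent) in 20 mM phosphate pH 7.0 with 0.01% (detergent screen) or 0.0001% Triton X-100 was preincubated with compounds for 15 min at room temperature. Nitrocefin was then added from an 800 uM solution, and hydrolysis was followed at 480 nm.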
# Potency is the fitted concentration of half-maximal effect; tags give direction and shape of the fitted curve.
Compound,"activity change, negative = inhibition",Potency
COc1ccc(C(C)=O)cc1Cn1nnc(-c2ccccc2Br)n1,inactive: -2.89%,
CC(C)(C)C(=O)Nc1ccccc1C(=O)Nc1ccncc1,,"inconclusive [inhibitor, partial curve, poor fit]"
CCCCCCCCC(=O)N/N=C/c1cccc(Br)c1,inactive: 2.91%,
COc1ccc2cc(C(c3nnnn3CC3CCCO3)N3CCOCC3)c(=O)[nH]c2c1 (configuration not stated),,"inconclusive [inhibitor, partial curve, poor fit]"
CC(C)c1ccc(NC(=O)CCNC(=O)N2C[C@H]3C[C@@H](C2)c2cccc(=O)n2C3)cc1,,"inconclusive [inhibitor, partial curve, poor fit]"
Cc1ccc(Cn2nnnc2CN2CCC(O)(c3ccc(F)cc3)CC2)cc1,,"inconclusive [inhibitor, partial curve]"
N#Cc1c(N2CCN(C(=O)c3ccccc3Cl)CC2)nc(-c2ccccc2)c2c1CCCC2,inactive: 2.14%,
COC(=O)c1c(NC(=O)CN2CCC3(O)CCCCC3C2c2ccccc2OC)sc(C)c1C (configuration not stated),inactive: 4.19%,
O=C(CSc1nnc(-c2ccccc2)o1)Nc1ccccc1F,,"inconclusive [inhibitor, partial curve]"
Cc1ccc(S(=O)(=O)C2C(=O)N(C)C3(C)CC2c2ccccc2O3)cc1C (configuration not stated),inactive: -6.6%,
Cc1ccc(CN2CC(C(=O)Nc3ccc(S(=O)(=O)Nc4cc(C)nc(C)n4)cc3)CC2=O)cc1 (configuration not stated),,"inconclusive [inhibitor, partial curve]"
CC(=O)c1ccc(N=Nc2c(C)[nH]n(-c3ccccc3)c2=O)cc1,,"inconclusive [inhibitor, full curve, poor fit]"
CN(C)c1ccc(/C=C2/SC(=O)N(CCN=C3NS(=O)(=O)c4ccccc43)C2=O)cc1,inactive: 1.61%,
Clc1ccc(Cn2ncc3c(NCc4cccnc4)ncnc32)cc1,,"inconclusive [inhibitor, partial curve]"
O=C(COC(=O)c1ccccn1)NCc1ccc(Cl)cc1Cl,,"inconclusive [inhibitor, partial curve]"
Cc1ccc(/C=C/C(=O)c2ccc(C)cc2)cc1,inactive: -1.31%,
CC(C)Cc1nc2sc3c(=O)n(N)cnc3c2c2c1COC(C)(C)C2,,"inconclusive [inhibitor, partial curve, poor fit]"
Nc1ccc2nc(-c3ccc(-c4nc5ccc(N)cc5[nH]4)cc3)[nH]c2c1,inactive: -9.62%,
CNC(=S)Nc1cccc(C(=O)OC)c1,inactive: 13.4%,
O=C(NC(Cc1ccccc1)c1ccc2c(c1)OCCCO2)c1ccc(F)cc1 (configuration not stated),inactive: -6.8%,
CN(CC(=O)N1CCc2ccccc21)S(=O)(=O)c1cccc2cccnc12,,"inconclusive [inhibitor, full curve, poor fit]"
COC(=O)c1ccc(-n2c(C)cc(C(=O)CSc3cccc[n+]3[O-])c2C)cc1,inactive: 7.94%,
CCOC(=O)C1=C(c2ccccc2)O/C(=C(\C(=O)OC)C(F)(F)F)S1,inactive: 0.501%,
CCCCc1ccc(NC(=S)NCCCN2CCOCC2)cc1,,"inconclusive [inhibitor, partial curve]"

Compound,"activity change, negative = inhibition",Potency
Cc1ccc2[nH]c(=O)c(CN(C(=O)c3cccc(Cl)c3)C(C)(C)C)cc2c1,inactive: 0.7%,
CC1CCC(NC(=O)C(Cc2ccccc2)n2cccc2)CC1 (configuration not stated),inactive: -7.45%,
CC(C)CN(CC(C)C)C(=O)CN1C(=O)NC2(CCc3ccccc3C2)C1=O (configuration not stated),,"inconclusive [inhibitor, partial curve, poor fit]"
Cc1ccccc1OCC(O)Cn1nnc2ccccc21 (configuration not stated),inactive: 6.08%,
CCN(c1ccccc1)S(=O)(=O)c1ccc(-c2cc(C)no2)s1,inactive: 5.37%,
Cc1ccc(-c2nnc(NCc3nc4ccccc4[nH]3)c3ccccc23)cc1S(=O)(=O)N1CCCCC1,inactive: -14.3%,
COc1cc(C(=O)NC(=S)Nc2ccc3c(c2)OCO3)cc(OC)c1OC,inactive: -2.53%,
CCc1nn2c(=O)cc(COC(=O)c3ccc(NC(=O)COc4ccc(C)cc4)cc3)nc2s1,inactive: -0.151%,
CCN(CC)S(=O)(=O)c1cccc(-c2nnc(SCc3nc4ccccc4s3)o2)c1,inactive: -0.864%,
O=C(NC1CC2CCCC(C1)N2C(=O)Nc1ccc(F)cc1)c1ccccc1 (configuration not stated),,"inconclusive [inhibitor, full curve, poor fit]"
Cc1ccsc1CNn1cnnc1SCc1ccccc1F,,"inconclusive [inhibitor, full curve]"
CCCCc1ccc(-c2c(C#N)c(N)nc3c2CCCC3)s1,,"inconclusive [inhibitor, full curve, poor fit]"
CC(C)N1CCN(Cc2nc(-c3ccccc3)cs2)CC1CCO (configuration not stated),inactive: 2.62%,
CC(C)OP(=O)(OC(C)C)C(Nc1ccccc1)c1ccccc1C(F)(F)F (configuration not stated),,"inconclusive [inhibitor, full curve, poor fit]"
CCOC(=O)c1sc(=NC(=O)CCS(=O)(=O)c2ccccc2)n(C)c1C,,"inconclusive [inhibitor, partial curve]"
CC(Oc1ccc(-c2ccccc2)cc1)C(=O)N1CCOCC1 (configuration not stated),,"inconclusive [inhibitor, full curve, poor fit]"
Cc1nc(NCCCO)c(C#N)c2c1COC(C)(C)C2,,"inconclusive [inhibitor, partial curve]"
CCCn1c(N)c(N(CCOC)C(=O)c2ccccc2F)c(=O)[nH]c1=O,,"inconclusive [inhibitor, full curve, poor fit]"
Cc1ccc(OCCCC(=O)Nc2ccc3c(c2)OCO3)cc1,,"inconclusive [inhibitor, full curve, poor fit]"
CCCCn1c(SCC2CCCCO2)nc2cc(S(N)(=O)=O)ccc21 (configuration not stated),,"inconclusive [inhibitor, full curve]"
O=C(NNC(=O)c1ccco1)c1csc(N2CCOCC2)n1,,"inconclusive [inhibitor, partial curve, poor fit]"
CC1=C(C(=O)Nc2ccc(C)cc2C)C(c2ccc(C(=O)O)cc2)n2nc(SCc3ccccc3)nc2N1 (configuration not stated),inactive: -2.02%,
CCOC(=O)C1CCN(S(=O)(=O)Cc2ccccc2)C1=O (configuration not stated),,"inconclusive [inhibitor, full curve, poor fit]"
CCCn1c2c(c(O)c(C(=O)NC)c1=O)CCCC2,,"inconclusive [inhibitor, full curve, poor fit]"

Compound,"activity change, negative = inhibition",Potency
CS(=O)(=O)N1CCC(C(=O)NCc2ccc(Cl)cc2Cl)CC1,,"inconclusive [inhibitor, single point]"
CCNc1nc(Cl)nc(NC2CCCCC2)n1,,"inconclusive [inhibitor, full curve, poor fit]"
Cc1ccc(C(=O)Nc2ccc(N3CCOCC3)nc2N2CCOCC2)cc1,,"inconclusive [inhibitor, single point]"
COc1cc(OC)c(N(C)C(=O)c2cn(C3CCCC3)c(=O)c3c2c2ccccc2n3C)cc1Cl,inactive: -3.75%,
Nc1ccc(N=Nc2ccccc2)c(N)n1,,"inconclusive [inhibitor, full curve, poor fit]"
O=C(Nc1ccc(S(=O)(=O)N2CCOCC2)cc1)c1ccc([N+](=O)[O-])o1,inactive: 3.28%,
Cc1ccc(-n2c(SCC(=O)c3c(N)n(C4CC4)c(=O)[nH]c3=O)nnc2N2CCOCC2)cc1,,"inconclusive [inhibitor, full curve, poor fit]"
COc1ccc(-c2nc(-c3ccc(Br)cc3)no2)c(OC)c1,inactive: -0.468%,
Cn1nnc2cc(C(=O)NCc3ccc4c(c3)OCO4)ccc21,,"inconclusive [inhibitor, full curve, poor fit]"
Cc1ccc2c(c1)C1CN(C)CCC1N2C(=O)Cn1cnc2c1c(=O)n(C)c(=O)n2C (configuration not stated),,"inconclusive [inhibitor, full curve]"
COc1ccc(S(=O)(=O)N2CCCCCC2)cc1C(=O)OCC(=O)NC(N)=O,,"inconclusive [inhibitor, full curve, poor fit]"
Cc1ccc(-n2c(CNC(=O)c3cccs3)nnc2SCC(=O)NO)cc1,,"inconclusive [inhibitor, full curve]"
COc1ccc2cc(-c3nnc(Nc4ccccc4)s3)c(=O)oc2c1,inactive: -1.72%,
CC(C)(CCl)C(=O)Nc1ccc(C(F)(F)F)cc1,inactive: 2.06%,
CCN(CC)C(=O)N1CCN(C)CC1,,"inconclusive [inhibitor, full curve, poor fit]"
Cc1ccccc1OCCCn1c(=O)sc2ccccc21,,"inconclusive [inhibitor, partial curve]"
CCCC(=O)Nc1nnc(-c2ccc3c(c2)OCO3)s1,inactive: -0.314%,
CCc1ccc(Nc2nnc(SCC(=O)Nc3cccc(S(=O)(=O)NC4=NCCCCC4)c3)s2)cc1,,"inconclusive [inhibitor, single point]"
COC(=O)c1ccc2c(=O)[nH]c(COC(=O)c3cccc(S(=O)(=O)N4CCOCC4)c3)nc2c1,,"inconclusive [inhibitor, partial curve, poor fit]"
Cc1ccc(-n2nnnc2-c2cnn(-c3ccc(F)cc3)c2C(F)(F)F)cc1,inactive: -12.6%,
Cc1cc(NC(=O)c2sc(Nc3ccc(F)c(Cl)c3)nc2N)no1,inactive: -3.45%,
Cc1cccnc1NC(=O)c1ccc(S(=O)(=O)N2CCC(C)CC2)cc1,,"inconclusive [inhibitor, full curve, poor fit]"
Cc1ccc(S(=O)(=O)N/N=C\c2ccc(C)o2)cc1,inactive: -9.23%,
CCn1c(Cc2cccs2)nnc1SCC(=O)Nc1ccc(OC)c(OC)c1,,"inconclusive [inhibitor, full curve, poor fit]"
